Reference: PubChem BioAssay AID588342 (National Center for Advancing Translational Sciences (NCATS), 2011)
About 25,000 (6.9%) of roughly 360,000 compounds were called active. Inconclusive means that the source gave no clear call. Such entries were picked first, then a sample of the others. Calls come from the whole dose curve; as a rule, active = well fitted inhibition curve with a large enough effect; inconclusive = small, poorly fitted or top-dose-only effect; inactive = flat fitted curve, though single readings scatter. Potencies of inconclusive entries are doubtful fits and often do not repeat.

target: Luciferin 4-monooxygenase (Photinus pyralis) (UniProt P08659); assay: qHTS profiling assay for firefly luciferase inhibitor/activator using purifed enzyme and Km concentrations of substrates (counterscreen for miR-21 project); conditions: purified FLuc, luminescence inhibition; series mostly up to 57.5 µM; note: nearly all actives have a fitted effect of over 55% in size
UniProt P08659, sequence (P08659 whole entry, looked up): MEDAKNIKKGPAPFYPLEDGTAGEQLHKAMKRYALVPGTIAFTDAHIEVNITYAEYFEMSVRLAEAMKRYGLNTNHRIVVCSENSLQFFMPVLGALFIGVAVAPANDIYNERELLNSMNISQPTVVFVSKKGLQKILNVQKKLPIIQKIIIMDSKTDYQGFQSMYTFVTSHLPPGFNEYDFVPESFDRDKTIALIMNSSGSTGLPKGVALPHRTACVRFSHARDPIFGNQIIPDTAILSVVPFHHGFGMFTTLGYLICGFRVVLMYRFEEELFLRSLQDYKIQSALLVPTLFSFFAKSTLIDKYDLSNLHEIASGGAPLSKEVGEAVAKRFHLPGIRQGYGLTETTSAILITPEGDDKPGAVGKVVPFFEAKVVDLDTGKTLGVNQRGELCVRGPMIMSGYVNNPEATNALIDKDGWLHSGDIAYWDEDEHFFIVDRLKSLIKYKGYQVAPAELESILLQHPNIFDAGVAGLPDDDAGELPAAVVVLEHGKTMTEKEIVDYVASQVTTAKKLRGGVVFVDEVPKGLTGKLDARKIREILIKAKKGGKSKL
Procedure, shortened: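 Biochemical qHTS of compounds, final roughly 60 µM downward over six points, against 10 nM purified firefly luciferase using Km concentrations of substrates (10 uM D-luciferin, 10 uM ATP) in Tris acetate pH 7.5 buffer; luminescence output.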
Potency is the fitted concentration of half-maximal effect; tags give direction and shape of the fitted curve.

Structure (SMILES) | Potency
COc1ccc(C)cc1NC(=O)CN1c2ccccc2S(=O)(=O)c2ccccc21 | inactive
COc1ccc(-c2nc3cc(C(C)C)ccc3o2)cc1NC(=O)c1ccccc1[N+](=O)[O-] | active: 2.69 µM
COc1cc(CCN2C(=O)c3cccc4cccc(c34)C2=O)c(S(=O)(=O)N2CCC(C)CC2)cc1OC | inconclusive: 26.9 µM [inhibitor, partial curve, poor fit]
COc1ccc(Cl)cc1-n1nnc(-c2nc(-c3ccccc3)no2)c1C | active: 15.1 µM
CN1C(=O)/C(=C/c2cn(CC(=O)NCc3ccco3)c3ccccc23)NC1=S | inactive
COc1ccc(/C=N/NC(=O)CCc2c(C)n[nH]c2C)cc1O | inactive
CCOc1cc(C(=O)CCC(=O)OCC(=O)NC(=O)NCC(C)C)ccc1O | inconclusive: 26.9 µM [inhibitor, partial curve, poor fit]
CN(C)c1ccc(-n2cc3c(=O)n(C)c(=O)n(C)c3c2)cc1 | active: 16.9 µM
O=C(c1ccc(F)cc1)c1cc2ccc(O)cc2oc1=O | active: 15.1 µM
Cc1cc2nc(N3CCN(C(=O)c4cccs4)CC3)sc2cc1C | inconclusive: 2.39 µM [inhibitor, full curve]
CN(C)S(=O)(=O)c1cccc(NC(=S)N/N=C/c2cccc(O)c2)c1 | inactive
COC(=O)C1=C(O)/C(=C/c2cccc(OC)c2O)N=C1C | active: 15.1 µM
Cc1ccc(C)c(N2CCN(C(=O)CCC(=O)Nc3ccc4nc(N5CCCCC5)cc(C)c4c3)CC2)c1 | inconclusive: 7.57 µM [inhibitor, full curve]
CCCCn1cnc2c([nH]c3ccccc32)c1=O | inconclusive: 42.6 µM [inhibitor, partial curve, poor fit]
CN(CC(=O)NCc1ccccc1Cl)S(=O)(=O)c1ccc2c(c1)n(C)c(=O)c(=O)n2C | inactive
C/C(=N\Nc1ccc([N+](=O)[O-])cc1)c1ccco1 | active: 7.57 µM
O=C(CSc1nc2ccccc2c(=O)n1NC(=O)Cc1ccccc1)NCCc1ccccc1 | inactive
CCOC(=O)C1CCN(C(=O)Cn2nc(C)n3nc(-c4ccc(CC)cc4)cc3c2=O)CC1 | inconclusive: 6.75 µM [inhibitor, partial curve, poor fit]
CC(=O)N1CCN(c2ccccc2NC(=O)COc2ccc(Cl)cc2Cl)CC1 | inactive
O=C(Nc1nc2c(s1)CCCC2)c1cccnc1 | active: 12 µM
O=c1[nH]c(C2CCN(S(=O)(=O)c3ccccc3C(F)(F)F)CC2)nc2c1nnn2Cc1ccccc1 | inactive
O=C(CCN1C(=O)c2ccccc2S1(=O)=O)Nc1ccc2c(c1)OCCO2 | inconclusive: 16.9 µM [inhibitor, partial curve]
CCN(C(=S)Nc1ccc(C(C)=O)cc1)C1CCCCC1 | inconclusive: 23.9 µM [inhibitor, partial curve, poor fit]
C=CCn1c(=O)c(C(=O)OCC)c(O)c2ccccc21 | inconclusive: 7.57 µM [inhibitor, full curve]
CN1CCN(c2ccc(-c3cc(O)c4ncccc4c3)cc2)CC1 | active: 6.01 µM

Structure (SMILES) | Potency
Cc1ccc(CNC(=O)CN2C(=O)CSc3ccc(S(=O)(=O)N4CCC(C)CC4)cc32)cc1 | inconclusive: 37.9 µM [inhibitor, partial curve, poor fit]
COC(=O)N/N=C/c1c(C)nn(-c2cccc(Cl)c2)c1Cl | inconclusive: 9.53 µM [inhibitor, partial curve, poor fit]
COCc1nc2oc3ccc(C)cc3c(=O)c2cc1C(=O)OC | active: 10.7 µM
CC(C)c1ccc(-c2nnn(CC(=O)N3CCCCC3)n2)cc1 | inconclusive: 23.9 µM [inhibitor, single point]
COc1ccccc1C(=O)Nc1cccc(NC(=O)c2ccccc2C)c1 | inconclusive: 21.3 µM [inhibitor, single point]
CCCn1c2ccccc2c2cnn(CC(=O)N3CCN(c4ccccc4)CC3)c(=O)c21 | inconclusive: 16.9 µM [inhibitor, partial curve, poor fit]
Cc1ccn2c(NC(C)(C)C)c(-c3cccs3)nc2c1 | inconclusive: 21.3 µM [inhibitor, single point]
CCn1ncc(/C=C2/SC(=S)NC2=O)c1C | active: 15.1 µM
O=C(CSc1nc2ccccc2o1)c1ccccc1 | active: 10.7 µM
Cc1ccc2nc3c(cc(C#N)c(=O)n3-c3nnc(SCc4ccccc4)s3)c(=O)n2c1 | inactive
O=C(O)c1ccccc1CSc1nnc2c(n1)[nH]c1ccccc12 | active: 21.3 µM
CCN(Cc1cccs1)C(=O)CN1CCN(S(=O)(=O)c2ccc3c(c2)OCCCO3)CC1 | inactive
C/C(=N\NC(=O)CN(c1ccc(Oc2ccccc2)cc1)S(C)(=O)=O)C(C)(C)C | inactive
Cc1c(NN=C(C#N)C#N)c(=O)n(-c2ccccc2)n1C | inactive
COc1ccccc1N1CCN(/N=C\C(Br)=C\c2ccccc2)CC1 | active: 16.9 µM
Cc1ccc(NC(=O)/C=C/c2ccc(Cl)cc2)nc1 | inconclusive: 7.57 µM [inhibitor, partial curve, poor fit]
CCCCN1C(=O)C(O)(CC(=O)c2ccc(C(C)(C)C)cc2)c2ccccc21 (stereo not drawn) | inactive
Cc1ccc(-c2nnc(-c3ccccc3)o2)cc1 | active: 2.69 µM
COc1ccc2cc3c(N)nn(C(=O)c4ccc(OC)c(OC)c4)c3nc2c1 | inactive
COC(=O)c1sc(NC(=O)COc2ccccc2OC)nc1C | inconclusive: 26.9 µM [inhibitor, partial curve, poor fit]
Cc1ccc(-c2cc(C(=O)NCc3ccccc3Cl)c3ccccc3n2)cc1C | inconclusive: 6.01 µM [inhibitor, full curve]
COc1ccc(Cc2c(O)nc(SCC(=O)NC34CC5CC(CC(C5)C3)C4)[nH]c2=O)cc1 | inconclusive: 23.9 µM [inhibitor, partial curve, poor fit]
COCCNC(=O)C(c1ccncc1)N(Cc1ccccc1)C(=O)Cn1nnc2ccccc21 (stereo not drawn) | inconclusive: 30.1 µM [inhibitor, single point]
Cc1ccc(N2C(=N)/C(=C3/Nc4ccccc4S3)C(c3ccccc3)C2=O)cc1 (stereo not drawn) | inconclusive: 19 µM [inhibitor, single point]
O=C(c1cccc(NS(=O)(=O)c2ccc(F)c(F)c2)c1)N1CCCCC1 | inactive

Structure (SMILES) | Potency
CC(C)(C)OC(=O)N/N=C/c1ccc(N2CCOCC2)s1 | inconclusive: 30.1 µM [inhibitor, single point]
O=C(Nc1nc(-c2ccccn2)cs1)c1ccc([N+](=O)[O-])o1 | inconclusive: 37.9 µM [inhibitor, single point]
O=C(CNC(=O)c1cccs1)c1ccc(Br)cc1 | active: 9.53 µM
CCCn1nc(NS(=O)(=O)c2cccc3nonc23)c2cc3cc(C)ccc3nc21 | active: 10.7 µM
COc1cc(OC)c(C(=O)N/N=C/c2ccoc2)cc1OC | inactive
O=C(O)c1ccc(NC(=O)c2cccc(C(=O)Nc3ccc(C(=O)O)cc3)n2)cc1 | inconclusive: 37.9 µM [inhibitor, partial curve, poor fit]
CCOc1ccc(C(=O)N2CCCC(c3nc(-c4cccs4)no3)C2)cc1 (stereo not drawn) | active: 21.3 µM
CC1CC(C)CN(c2ccc(C(=O)NCc3ccc4c(c3)OCO4)cc2[N+](=O)[O-])C1 (stereo not drawn) | inactive
COc1cccc(N=Nc2c(=O)[nH]n3c(=O)c4c([nH]c23)CCC4)c1 | inconclusive: 26.9 µM [inhibitor, single point]
Cc1c(O)nc(SCC(=O)Nc2nccs2)n(-c2ccccc2F)c1=O | inactive
COc1ccc(-c2nnc(SCC(=O)N/N=C/c3ccccc3C(=O)O)n2-c2ccccc2)cc1 | inconclusive: 42.6 µM [inhibitor, partial curve, poor fit]
Cc1ccccc1-c1nnn(CC(=O)Nc2sc3c(c2C#N)CCC(C(C)(C)C)C3)n1 (stereo not drawn) | inconclusive: 7.57 µM [inhibitor, partial curve, poor fit]
CCCc1ccc(-c2cc(C(=O)Nc3ccc([N+](=O)[O-])cn3)c3ccccc3n2)cc1 | inconclusive: 0.953 µM [inhibitor, full curve, poor fit]
O=C(O)c1cccc(-n2c(/C=C/c3cccc([N+](=O)[O-])c3)nc3ccccc3c2=O)c1 | inconclusive: 19 µM [inhibitor, partial curve]
Cc1nc2nc(-c3ccco3)nn2c(C)c1Cl | inactive
O=C(COc1ccc2ccccc2c1)N/N=C/c1ccccn1 | inconclusive: 37.9 µM [inhibitor, single point]
COc1cccc(Nc2nc(N)c([N+](=O)[O-])c(NCc3ccccc3)n2)c1 | inconclusive: 37.9 µM [inhibitor, single point]
CCOC(=O)CNC(=O)CSc1ncnc2c1cnn2-c1ccc(C)cc1 | inconclusive: 10.7 µM [inhibitor, partial curve]
Cc1ccc(N2CCN(S(=O)(=O)N(C)C)CC2)c(C)c1 | inactive
Cc1ccc(OCC(=O)Nc2cccc(S(=O)(=O)N3CCCCCC3)c2)cc1C | inconclusive: 16.9 µM [inhibitor, partial curve]
O=C(COc1ccc([N+](=O)[O-])cc1)Nc1nc2c(s1)CCCC2 | inactive
C=CCN(CC=C)CCOc1ccc(OC(C)C)cc1 | inconclusive: 26.9 µM [inhibitor, partial curve, poor fit]
COc1cc(/C=C2/C(=O)NN(c3cccc(C)c3)C2=O)ccc1OC(=O)c1ccco1 | inconclusive: 26.9 µM [inhibitor, single point]
